Measured values from PubChem BioAssay (NCATS).
The shares of active, inactive and inconclusive entries below differ from those in the screen. For part of these data: Potencies beside an inconclusive call are fits to weak or partial responses and may not hold up. Active and inactive are the calls of the source. The call rests on the fitted dose curve; in most records, active means well fitted inhibition curve with a large enough effect; inconclusive means small, poorly fitted or top-dose-only effect; inactive means no such curve, though single readings can be large or run the other way.

target: Nuclear receptor ROR-gamma (Homo sapiens) (UniProt P51449); test: qHTS assay for small molecule antagonists of the retinoid-related orphan receptor gamma (ROR-gamma) signaling pathway (AID 651802); conditions: ROR-gamma antagonist cell reporter assay; series mostly up to 92.2 µM; activity change, negative = inhibition: at the top concentration;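 on activity change, negative = inhibition: CHO cells with doxycycline-induced ROR-gamma expression; luciferase reporter luminescence driven by ROR response element; on the % scale 0 is the no-effect control and ±100 the full control effect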
Procedure, shortened: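 Luciferase read-out: ONE-Glo luminescence after 30 min at room temperature, following 16hr doxycycline induction at 37C, 5% CO2 of CHO cells with TET-inducible ROR and RORE-LUC reporter; decreased luminescence = reduced reporter activity.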
Further: nearly all actives have a fitted effect of over 60% in size.
Potency means the concentration at half of the fitted maximal effect; tags describe the fitted curve by direction and shape.

UniProt P51449, sequence (P51449 whole entry, looked up): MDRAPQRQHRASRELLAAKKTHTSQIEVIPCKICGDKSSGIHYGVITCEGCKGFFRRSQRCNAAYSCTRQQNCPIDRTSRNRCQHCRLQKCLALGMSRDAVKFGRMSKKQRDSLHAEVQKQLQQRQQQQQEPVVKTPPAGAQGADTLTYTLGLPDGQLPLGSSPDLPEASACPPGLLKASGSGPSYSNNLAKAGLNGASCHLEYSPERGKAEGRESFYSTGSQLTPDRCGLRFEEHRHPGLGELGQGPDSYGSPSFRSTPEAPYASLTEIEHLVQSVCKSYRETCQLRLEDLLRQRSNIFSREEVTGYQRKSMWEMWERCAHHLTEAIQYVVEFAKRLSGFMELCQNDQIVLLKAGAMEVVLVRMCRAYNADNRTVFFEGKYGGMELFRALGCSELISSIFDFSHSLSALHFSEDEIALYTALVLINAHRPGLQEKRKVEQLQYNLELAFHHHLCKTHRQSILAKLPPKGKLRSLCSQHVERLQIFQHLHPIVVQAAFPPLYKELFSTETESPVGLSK

SMILES | activity change, negative = inhibition | Potency
CCC1(c2ccccc2)C(=O)NCNC1=O | inactive: 8.98% | –
CC(=O)Oc1ccccc1C(=O)O | – | inactive
O=c1[nH]cc(F)c(=O)[nH]1 | inactive: -2.56% | –
C#C[C@]1(O)CC[C@H]2[C@@H]3CCc4cc(O)ccc4[C@H]3CC[C@@]21C | – | active: 33.5 µM

target: Tyrosine-protein kinase Yes (Homo sapiens) (UniProt P07947); test: qHTS for small molecule inhibitors of Yes1 kinase: Primary Screen (AID 686947); conditions: Yes1 kinase biochemical qHTS inhibition; series mostly up to 76.9 µM; activity change, negative = inhibition: at the top concentration;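 on activity change, negative = inhibition: plate controls were DMSO with enzyme for no effect and no-enzyme DMSO wells for full effect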
Procedure, shortened: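 In this qHTS format, inhibition is expressed relative to DMSO controls with enzyme (maximum) and without enzyme (minimum). The 60 min room-temperature reaction uses 0.1 mM ATP, with ADP detected by luminescence.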

UniProt P07947, sequence (P07947 whole entry, looked up): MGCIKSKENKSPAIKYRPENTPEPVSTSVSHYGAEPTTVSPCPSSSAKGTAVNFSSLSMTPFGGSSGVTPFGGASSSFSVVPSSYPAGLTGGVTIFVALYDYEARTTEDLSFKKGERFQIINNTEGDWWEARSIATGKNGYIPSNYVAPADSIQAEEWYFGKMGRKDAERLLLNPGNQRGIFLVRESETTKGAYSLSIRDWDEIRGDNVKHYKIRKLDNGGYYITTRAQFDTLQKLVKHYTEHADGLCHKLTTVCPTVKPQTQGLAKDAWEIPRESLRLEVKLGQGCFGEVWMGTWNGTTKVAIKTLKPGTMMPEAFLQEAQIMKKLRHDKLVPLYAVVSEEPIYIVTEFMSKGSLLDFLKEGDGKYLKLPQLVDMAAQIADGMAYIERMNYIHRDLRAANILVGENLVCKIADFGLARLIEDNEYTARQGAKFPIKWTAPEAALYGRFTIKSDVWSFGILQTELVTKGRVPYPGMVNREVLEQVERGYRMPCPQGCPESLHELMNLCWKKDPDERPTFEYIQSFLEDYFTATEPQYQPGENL

SMILES | Potency | activity change, negative = inhibition
CC(C)c1ccc2c(c1)c(SC(C)(C)C)c(CC(C)(C)C(=O)O)n2Cc1ccc(Cl)cc1 | inconclusive: 48.7 µM [inhibitor, single point] | –
O=c1c(-c2ccc(O)cc2)coc2cc(O)cc(O)c12 | inconclusive: 30.7 µM [inhibitor, partial curve] | –
CN(c1ncccc1CNc1nc(Nc2ccc3c(c2)CC(=O)N3)ncc1C(F)(F)F)S(C)(=O)=O | active: 0.194 µM | –
Cc1ccnc(NS(=O)(=O)c2ccc(NC(=O)Nc3ccc(S(=O)(=O)Nc4nccc(C)n4)cc3)cc2)n1 | inconclusive: 24.4 µM [inhibitor, partial curve] | –
CC(=O)Nc1ccc([C@H](C)C(=O)Nc2ncc(C(C)C)s2)cc1 | inconclusive: 27.4 µM [inhibitor, partial curve, poor fit] | –
COc1ncc(-c2ccc3nccc(-c4ccnnc4)c3c2)cc1NS(=O)(=O)c1ccc(F)cc1F | inconclusive: 34.5 µM [inhibitor, single point] | –
N#Cc1ccc(NC(=O)Nc2ccccc2Br)c2n[nH]nc12 | inconclusive: 34.5 µM [inhibitor, single point] | –
CCCn1c(=O)c2[nH]c(C34CC5CC3C[C@@H](C5)C4)nc2n(CCC)c1=O | – | inactive: -3.1%
CC(C)(C)OC(=O)CN(Cc1ccc(Cl)cc1)Cc1ccc([N+](=O)[O-])s1 | inconclusive: 54.7 µM [inhibitor, single point] | –
O=C(NOCC1CC1)c1ccc(F)c(F)c1Nc1ccc(I)cc1Cl | – | inactive: 14.4%
C=CC(=O)Nc1cc2c(Nc3ccc(F)c(Cl)c3)ncnc2cc1C#CC(C)(C)N1CCN(C)CC1 | active: 0.0972 µM | –
NC(=O)c1ccc(-c2nc(-c3ccc4c(c3)OCCO4)c(-c3ccccn3)[nH]2)cc1 | – | inactive: 66.2%
OCCC#Cc1nc(-c2ccc(F)cc2)c(-c2ccncc2)n1CCCc1ccccc1 | inconclusive: 38.7 µM [inhibitor, single point] | –
CCNC(=O)c1noc(-c2cc(C(C)C)c(O)cc2O)c1-c1ccc(CN2CCOCC2)cc1 | inconclusive: 38.7 µM [inhibitor, partial curve] | –
CC(C)C[C@@H](C(=O)N[C@H](C(=O)OC1CCCC1)c1ccccc1)[C@H](O)C(=O)NO | – | inactive: -11.9%
COc1ccc(CC2=NN3C([C@@H](CCc4ccccc4)[C@@H](C)O)=NC(C)C3C(=O)N2)cc1OC (stereo partly specified) | – | inactive: 0.678%
O=C(O)Cc1cccc(OCCCN(Cc2cccc(C(F)(F)F)c2Cl)CC(c2ccccc2)c2ccccc2)c1 | inconclusive: 54.7 µM [inhibitor, single point] | –
